One may read the % Inhibition as the drop in the measured response relative to a control, in per cent.

Experimental findings from ChEMBL document CHEMBL4888484, “Replenishing the malaria drug discovery pipeline: Screening and hit evaluation of the MMV Hit Generation Library 1 (HGL1) against asexual blood stage Plasmodium falciparum ,using a nano luciferase reporter read-out” (2022) are described below.

In all, about 150,000 compounds went through this assay and about 540 (0.36%) showed an effect of 50% or more. The list shows a part of the results.

This assay has as its system Plasmodium falciparum. Briefly: Primary screen in NF54 nanoGlo assay, in single point, at 2uM, 72h; a lower Z score goes with more inhibition. Type of assay: functional, Erythrocyte. Particulars: timepoint 72 hour.
Regarding `O=C(Nc1ccc(F)cc1)N[C@H]1CCN(c2ccc(C(F)(F)F)cn2)C1`, the “% Inhibition” value was -12% and the Z score was 2.31.
The corresponding values for `CC(C)(C)NC(=O)C(=O)NCc1ccc(Cl)cc1Cl` are -6% and 0.82.
Regarding `Cc1nc(C(=O)NCCc2cn[nH]c2)cs1`, the “% Inhibition” value turned out to be 19% and the Z score is given as -2.45.
The corresponding values for `Cc1ncc(C(=O)N2CC[C@H](NC(=O)OCc3ccccc3)C2)c(C)n1` are -7% and 0.97.
For `CC(C)c1ccc(-c2noc(CN3CCC[C@H]3c3cccs3)n2)cc1`, the “% Inhibition” value is -8% and the Z score is 1.11.
The corresponding values for `CCCc1cncnc1NCC[C@H]1CCCOC1` are -7% and 1.13.
On the same counts, the results for `Cc1ccc(NC(=O)c2c(C)nc3sc(C(=O)NCc4ccccc4)c(N)c3c2-c2cccnc2)c(C)c1` are 21% and -3.35.
The corresponding values for `O=C(C[C@@H]1NC(=O)N(c2cc(F)c(F)c(F)c2)C1=O)N1CCc2ccccc2C1` are -6% and 0.75.
On to `Cc1ccc(Cn2c3c(c(C)c2C(=O)NCc2cccc(C(F)(F)F)c2)CCCC3)cc1`, for which the “% Inhibition” value was -13% and the Z score came out at 1.23.
The corresponding values for `CNC(=O)CNC(=O)NC1CC2CCC(C)(C)c3cccc1c32` (centres undefined) are -16% and 2.48.
As for `Cc1ccc(NC(=O)CO[C@H](C)CNS(C)(=O)=O)cc1`, the “% Inhibition” value was -5% and the Z score is 0.6.
On the same counts, the results for `COc1ccc(-c2csc(NC3=NCCCCC3)n2)cc1` are -9% and 0.87.
The corresponding values for `CCc1nc([C@@H]2COCCO2)n(-c2ccc3nc(C)sc3c2)n1` are 1% and -0.12.
On to `C[C@H](NC(=O)c1ccc(-c2cc(Cl)cc(Cl)c2)s1)c1nncn1C`, for which the “% Inhibition” value was -5% and the Z score is 0.51.
The corresponding values for `O=C(N[C@@H](Cn1nccn1)c1ccccc1)c1ccncc1` are -13% and 1.97.
The corresponding values for `Cc1ccc(-c2cc3c(N4CC=C(c5ccccc5)CC4)nccn3n2)c(C)c1` are 38% and -1.53.
On the same counts, the results for `COC(C)(C)c1noc(Cc2c[nH]c3ccccc23)n1` are 30% and -3.38.
`COc1ccc(C)cc1NC(=O)N1CC(c2nc(C(C)C)nn2C)C1`: the “% Inhibition” value is recorded as 33% and the Z score is recorded as -4.47.
On the same counts, the results for `Cc1cccc(-c2ccc(Cn3ccnc3)cn2)c1C` are -8% and 0.98.
On the same counts, the results for `CCn1cnnc1CNC(=O)c1cccnc1` are -11% and 1.44.
On the same counts, the results for `CC(C)(C)OC(=O)N[C@H]1CCN(CC(F)(F)F)C1` are -4% and 0.47.
As to `Cc1cc(C(=O)N2CCc3[nH]cnc3[C@H]2c2ccncc2)nc(C)n1`, the “% Inhibition” value is reported as -4% and the Z score was 0.59.
On the same counts, the results for `COc1cccc(C(=O)N2CCCN(c3cc(-c4ccccc4)n[nH]3)CC2)c1` are -7% and 0.71.
As to `O=C(c1cccc2c1NCCC2)N1CCN(c2nc[nH]n2)CC1`, the “% Inhibition” value is listed as -6% and the Z score was determined as 1.09.
The corresponding values for `C[C@H]1CCCN(C(=O)c2nc3ccccn3c2-c2ccc(F)cc2)C1` are -4% and 0.65.
In the case of `CCCN(CCC)CCNc1ncnc2onc(C)c12`, the “% Inhibition” value is -3% and the Z score is 0.48.
The corresponding values for `CC(C)[C@H](O)C(=O)N1CCc2onc(-c3ccc(F)c(F)c3)c2C1` are -16% and 1.51.
The corresponding values for `CN(CCc1ccccn1)Cc1cc(C(N)=O)cs1` are -4% and 0.52.
On the same counts, the results for `COC(=O)C1CN(C(=O)C2COCCO2)c2ccc(F)cc2O1` (centres undefined) are -9% and 1.1.
With `O=C(c1ccsc1)N1CCO[C@H](c2ccccc2)C1`, the “% Inhibition” value is recorded as -6% and the Z score came out at 0.73.
The corresponding values for `Cc1cc(C(=O)N2CC[C@H](Cc3nc4cccnc4n3CC(C)C)C2)nn1C` are -8% and 0.82.
The corresponding values for `CCOc1ccc(-c2c[nH]c(-c3cccc(C(=O)OC)n3)n2)cc1` are 0% and 0.02.
In the case of `Cc1ncsc1CN(C)Cc1nncn1C`, the “% Inhibition” value was -20% and the Z score was determined as 2.53.
As for `CNCCCNC(=O)c1cnc(-c2cc(Cl)cc(Cl)c2)nc1O`, the “% Inhibition” value is -10% and the Z score worked out at 1.71.
On the same counts, the results for `Cc1nsc(N(C)Cc2nc3ccccc3s2)n1` are 4% and -0.55.
The corresponding values for `Nc1c(C(=O)N2CCCCC2)sc2ncccc12` are -13% and 1.61.
The corresponding values for `CO[C@H]1[C@@H]2CC[C@H]1CN(Cc1cnc(NCc3ccccc3)nc1)C2` are -2% and 0.27.
As to `N#CCS(=O)(=O)c1ccc(Br)cc1F`, the “% Inhibition” value is given as -18% and the Z score came out at 2.01.
For the molecule `CC[C@H](C)[C@H](NC(=O)c1cccc(NC(=O)OC)c1)C(=O)OC(C)(C)C`, the “% Inhibition” value is -7% and the Z score was found to be 0.8.
On to `COc1cc(OC)cc(C(=O)Nc2cc(C)c3nc(NS(=O)(=O)c4ccc(C)cc4)sc3c2)c1`, for which the “% Inhibition” value is 10% and the Z score is -1.2.
The corresponding values for `CN(c1ccn(C)n1)S(=O)(=O)CCC1CCCCC1` are -5% and 0.61.
With `O=C(Nc1ccnn1Cc1cccc2ccccc12)C1CCC1`, the “% Inhibition” value stood at 6% and the Z score is -0.71.
